From publication PMC9911399, “Two distinct binding modes provide the RNA-binding protein RbFox with extraordinary sequence specificity”
Positions count from the first letter of the chain named. The list shows a part of the results.

T1: RBFOX1 RRM (Homo sapiens, UniProt Q9NWB1 109-208)
T1 sequence: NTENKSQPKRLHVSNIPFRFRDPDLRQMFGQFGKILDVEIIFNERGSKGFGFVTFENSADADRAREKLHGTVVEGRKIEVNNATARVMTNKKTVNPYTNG

B1: CUGUAAU (DNA:RNA)
RNA: GGGAGACCGGAAUUCAGAUUGUCCCUGUAAUUUAAAUCCCGUCGUAGCCACCA
DNA 1: CAATCTGAATTCCGGTCTCCC
DNA 2: TGGTGGCTACGACGGGATT
B2: CAGCAAG (DNA:RNA)
RNA: B1 RNA with U26A, U28C, U31G
DNA 1: CAATCTGAATTCCGGTCTCCC
DNA 2: TGGTGGCTACGACGGGATT
B3: GAUUGCG (DNA:RNA)
RNA: B1 RNA with C25G, U26A, G27U, A29G, A30C, U31G
DNA 1: CAATCTGAATTCCGGTCTCCC
DNA 2: TGGTGGCTACGACGGGATT
B4: UCGAACG (DNA:RNA)
RNA: B1 RNA with C25U, U26C, U28A, A30C, U31G
DNA 1: CAATCTGAATTCCGGTCTCCC
DNA 2: TGGTGGCTACGACGGGATT
B5: AGACUUU (DNA:RNA)
RNA: B1 RNA with C25A, U26G, G27A, U28C, A29U, A30U
DNA 1: CAATCTGAATTCCGGTCTCCC
DNA 2: TGGTGGCTACGACGGGATT
B6: ACCGGCA (DNA:RNA)
RNA: GGGAGACCGGAAUUCAGAUUGUCCACCGGCAUUAAAUCCCGUCGUAGCCACCA
DNA 1: CAATCTGAATTCCGGTCTCCC
DNA 2: TGGTGGCTACGACGGGATT
B7: AGCCGGC (DNA:RNA)
RNA: B6 RNA with C26G, G28C, C30G, A31C
DNA 1: CAATCTGAATTCCGGTCTCCC
DNA 2: TGGTGGCTACGACGGGATT
B8: UGUAAGA (DNA:RNA)
RNA: B6 RNA with A25U, C26G, C27U, G28A, G29A, C30G
DNA 1: CAATCTGAATTCCGGTCTCCC
DNA 2: TGGTGGCTACGACGGGATT
B9: AUUUUAC (DNA:RNA)
RNA: B1 RNA with C25A, G27U, A29U, U31C
DNA 1: CAATCTGAATTCCGGTCTCCC
DNA 2: TGGTGGCTACGACGGGATT
B10: CAUUGUC (DNA:RNA)
RNA: B1 RNA with U26A, G27U, A29G, A30U, U31C
DNA 1: CAATCTGAATTCCGGTCTCCC
DNA 2: TGGTGGCTACGACGGGATT
B11: AGAUUUA (DNA:RNA)
RNA: B6 RNA with C26G, C27A, G28U, G29U, C30U
DNA 1: CAATCTGAATTCCGGTCTCCC
DNA 2: TGGTGGCTACGACGGGATT
B12: AGUCAUA (DNA:RNA)
RNA: B6 RNA with C26G, C27U, G28C, G29A, C30U
DNA 1: CAATCTGAATTCCGGTCTCCC
DNA 2: TGGTGGCTACGACGGGATT
B13: UUUGGAA (DNA:RNA)
RNA: B6 RNA with A25U, C26U, C27U, C30A
DNA 1: CAATCTGAATTCCGGTCTCCC
DNA 2: TGGTGGCTACGACGGGATT
B14: GCCCGGG (DNA:RNA)
RNA: B6 RNA with A25G, G28C, C30G, A31G
DNA 1: CAATCTGAATTCCGGTCTCCC
DNA 2: TGGTGGCTACGACGGGATT
B15: CGUUCAG (DNA:RNA)
RNA: B1 RNA with U26G, G27U, A29C, U31G
DNA 1: CAATCTGAATTCCGGTCTCCC
DNA 2: TGGTGGCTACGACGGGATT
B16: AGGCGAC (DNA:RNA)
RNA: B6 RNA with C26G, C27G, G28C, C30A, A31C
DNA 1: CAATCTGAATTCCGGTCTCCC
DNA 2: TGGTGGCTACGACGGGATT
B17: CUAUACA (DNA:RNA)
RNA: B1 RNA with G27A, A30C, U31A
DNA 1: CAATCTGAATTCCGGTCTCCC
DNA 2: TGGTGGCTACGACGGGATT
B18: CCAGAGU (DNA:RNA)
RNA: B1 RNA with U26C, G27A, U28G, A30G
DNA 1: CAATCTGAATTCCGGTCTCCC
DNA 2: TGGTGGCTACGACGGGATT
B19: UACGUUA (DNA:RNA)
RNA: B6 RNA with A25U, C26A, G29U, C30U
DNA 1: CAATCTGAATTCCGGTCTCCC
DNA 2: TGGTGGCTACGACGGGATT

Tests used:
RBFOX1 RRM [1] = target: T1, RBFOX1 RRM; experiment: EMSA; HiTS-Eq, 1 nM pool, 10 min; buffer printed only for the single-RNA assays: 10 mM Tris pH 7.5, 150 mM NaCl, 3.4 mM EDTA, 0.001% NP-40, 30 C; conditions: tags: His6 N-terminal (pET28a); label: 5' 32P
Summary of the method: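 Purified RbFox RRM (wild type or mutant) was equilibrated for 10 min in 50 µL with 1 nM of a 5′-radiolabelled pool of RNA with 7 randomized nucleotides, its flanks annealed to DNA oligonucleotides, across increasing protein concentrations. Free RNA was separated by 8% native PAGE, excised, reverse-transcribed, PCR-barcoded and sequenced on an Illumina HiSeq 2500. Relative association constants came from read-count changes of each variant against the control reaction, normalised to the cognate motif.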

RBFOX1 RRM [2] = target: T1, RBFOX1 RRM; experiment: competition; 10 mM Tris pH 7.5, 150 mM NaCl, 3.4 mM EDTA, 0.001% NP-40, 30 C; conditions: tags: His6 N-terminal (pET28a)

Binder	binding signal (RBFOX1 RRM [1])	binding signal (RBFOX1 RRM [2])
B1	0.00859 KA relative to UGCAUGU	
B2	0.0119 KA relative to UGCAUGU	
B3	0.0264 KA relative to UGCAUGU	
B4	0.0172 KA relative to UGCAUGU	
B5	0.0086 KA relative to UGCAUGU	
B6	0.00809 KA relative to UGCAUGU	
B7	0.00734 KA relative to UGCAUGU	
B8	0.0151 KA relative to UGCAUGU	
B9	0.006 KA relative to UGCAUGU	
B10	0.00929 KA relative to UGCAUGU	
B11	0.00707 KA relative to UGCAUGU	
B12	0.00123 KA relative to UGCAUGU	
B13	0.00819 KA relative to UGCAUGU	
B14	0.0183 KA relative to UGCAUGU	
B15	0.0112 KA relative to UGCAUGU	
B16	0.00548 KA relative to UGCAUGU	
UGCGUGU (ssRNA)		196 nM
B17	0.00316 KA relative to UGCAUGU	
B18	0.00818 KA relative to UGCAUGU	
B19	0.00791 KA relative to UGCAUGU	
